# Experimental data as given in the supplement of paper PMC8728848.
# Some of the results follow.
# Key:
# Test in all cases: glycan array binding signal (z-score within array); higher = stronger binding
# Conditions in all cases: glycan notation: IUPAC condensed, linker removed
# [1] = molecular target: Neu5Ac(a2-3)Gal(b1-3)]Neu5Ac(a2-3)Gal(b1-4)]GlcNAc
# In short: (§1)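 Columns mapping to the same glycan were averaged after glycan names were converted to IUPAC-condensed notation. The data come from 3228 arrays in the Consortium for Functional Glycomics database, limited to those with an available protein sequence. Binding is reported as a within-array Z-score averaged across arrays of one protein sequence and across linkers.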
# Neu5Ac(a2-3)Gal(b1-4)Glc = molecular target: Neu5Ac(a2-3)Gal(b1-4)Glc
# In short: as §1
# [2] = molecular target: Neu5Ac(a2-3)Gal(b1-4)GlcNAc
# In short: as §1
# [3] = molecular target: Neu5Ac(a2-3)Gal(b1-4)GlcNAc(b1-2)Man
# In short: as §1
# [4] = molecular target: Neu5Ac(a2-3)Gal(b1-4)GlcNAc(b1-2)Man(a1-3)[GlcNAc(b1-4)][Neu5Ac(a2-3)Gal(b1-4)GlcNAc(b1-2)Man(a1-6)]Man(b1-4)GlcNAc(b1-4)GlcNAc
# In short: as §1
# [5] = molecular target: Neu5Ac(a2-3)Gal(b1-4)GlcNAc(b1-2)Man(a1-3)[Neu5Ac(a2-3)Gal(b1-4)GlcNAc(b1-2)Man(a1-6)]Man(b1-4)GlcNAc(b1-4)GlcNAc
# In short: as §1
# [6] = molecular target: Neu5Ac(a2-3)Gal(b1-4)GlcNAc(b1-2)Man(a1-3)[Neu5Ac(a2-3)Gal(b1-4)GlcNAc(b1-2)Man(a1-6)]Man(b1-4)GlcNAc(b1-4)[Fuc(a1-6)]GlcNAc
# In short: as §1
# [7] = molecular target: Neu5Ac(a2-3)Gal(b1-4)GlcNAc(b1-2)Man(a1-3)[Neu5Ac(a2-6)Gal(b1-4)GlcNAc(b1-2)Man(a1-6)]Man(b1-4)GlcNAc(b1-4)GlcNAc
# In short: as §1
# [8] = molecular target: Neu5Ac(a2-3)Gal(b1-4)GlcNAc(b1-2)[Neu5Ac(a2-3)Gal(b1-4)GlcNAc(b1-4)]Man(a1-3)[GlcNAc(b1-4)][Neu5Ac(a2-3)Gal(b1-4)GlcNAc(b1-2)[Neu5Ac(a2-3)Gal(b1-4)GlcNAc(b1-6)]Man(a1-6)]Man(b1-4)GlcNAc(b1-4)GlcNAc
# In short: as §1
# [9] = molecular target: Neu5Ac(a2-3)Gal(b1-4)GlcNAc(b1-2)[Neu5Ac(a2-3)Gal(b1-4)GlcNAc(b1-4)]Man(a1-3)[GlcNAc(b1-4)][Neu5Ac(a2-3)Gal(b1-4)GlcNAc(b1-4)Man(a1-6)]Man(b1-4)GlcNAc(b1-4)GlcNAc
# In short: as §1
# [10] = molecular target: Neu5Ac(a2-3)Gal(b1-4)GlcNAc(b1-2)[Neu5Ac(a2-3)Gal(b1-4)GlcNAc(b1-6)]Man(a1-6)[Neu5Ac(a2-3)Gal(b1-4)GlcNAc(b1-2)Man(a1-3)][GlcNAc(b1-4)]Man(b1-4)GlcNAc(b1-4)GlcNAc
# In short: as §1
# [11] = molecular target: Neu5Ac(a2-3)Gal(b1-4)GlcNAc(b1-3)Gal
# In short: as §1
# [12] = molecular target: Neu5Ac(a2-3)Gal(b1-4)GlcNAc(b1-3)Gal(b1-3)GlcNAc
# In short: as §1
# [13] = molecular target: Neu5Ac(a2-3)Gal(b1-4)GlcNAc(b1-3)Gal(b1-4)GlcNAc
# In short: as §1
# [14] = molecular target: Neu5Ac(a2-3)Gal(b1-4)GlcNAc(b1-3)Gal(b1-4)GlcNAc(b1-2)Man(a1-3)[Neu5Ac(a2-3)Gal(b1-4)GlcNAc(b1-3)Gal(b1-4)GlcNAc(b1-2)Man(a1-6)]Man(b1-4)GlcNAc(b1-4)GlcNAc
# In short: as §1
# [15] = molecular target: Neu5Ac(a2-3)Gal(b1-4)GlcNAc(b1-3)Gal(b1-4)GlcNAc(b1-3)Gal(b1-4)GlcNAc
# In short: as §1
# [16] = molecular target: Neu5Ac(a2-3)Gal(b1-4)GlcNAc(b1-3)Gal(b1-4)GlcNAc(b1-3)Gal(b1-4)GlcNAc(b1-2)Man(a1-3)[Neu5Ac(a2-3)Gal(b1-4)GlcNAc(b1-3)Gal(b1-4)GlcNAc(b1-3)Gal(b1-4)GlcNAc(b1-2)Man(a1-6)]GalNAc
# In short: as §1
# [17] = molecular target: Neu5Ac(a2-3)Gal(b1-4)GlcNAc(b1-3)Gal(b1-4)GlcNAc(b1-3)GalNAc
# In short: as §1
# [18] = molecular target: Neu5Ac(a2-3)Gal(b1-4)GlcNAc(b1-3)Gal(b1-4)GlcNAc(b1-3)[Neu5Ac(a2-3)Gal(b1-4)GlcNAc(b1-3)Gal(b1-4)GlcNAc(b1-6)]GalNAc
# In short: as §1
# [19] = molecular target: Neu5Ac(a2-3)Gal(b1-4)GlcNAc(b1-3)Gal(b1-4)GlcNAc(b1-6)[Gal(b1-3)]GalNAc
# In short: as §1
# [20] = molecular target: Neu5Ac(a2-3)Gal(b1-4)GlcNAc(b1-3)Gal(b1-4)[Fuc(a1-3)]GlcNAc
# In short: as §1
# [21] = molecular target: Neu5Ac(a2-3)Gal(b1-4)GlcNAc(b1-3)GalNAc
# In short: as §1
# [22] = molecular target: Neu5Ac(a2-3)Gal(b1-4)GlcNAc(b1-3)[Neu5Ac(a2-3)Gal(b1-4)GlcNAc(b1-6)]GalNAc
# In short: as §1
# [23] = molecular target: Neu5Ac(a2-3)Gal(b1-4)GlcNAc(b1-6)GalNAc
# In short: as §1
# [24] = molecular target: Neu5Ac(a2-3)Gal(b1-4)GlcNAc(b1-6)[Gal(b1-3)]GalNAc
# In short: as §1
# [25] = molecular target: Neu5Ac(a2-3)Gal(b1-4)GlcNAc(b1-6)[Neu5Ac(a2-3)Gal(b1-3)]GalNAc
# In short: as §1
# [26] = molecular target: Neu5Ac(a2-3)Gal(b1-4)GlcNAc6S
# In short: as §1
# [27] = molecular target: Neu5Ac(a2-3)Gal(b1-4)[Fuc(a1-3)]GlcNAc
# In short: as §1
# [28] = molecular target: Neu5Ac(a2-3)Gal(b1-4)[Fuc(a1-3)]GlcNAc(b1-2)Man
# In short: as §1
# [29] = molecular target: Neu5Ac(a2-3)Gal(b1-4)[Fuc(a1-3)]GlcNAc(b1-3)Gal
# In short: as §1
# [30] = molecular target: Neu5Ac(a2-3)Gal(b1-4)[Fuc(a1-3)]GlcNAc(b1-3)Gal(b1-4)GlcNAc
# In short: as §1
# [31] = molecular target: Neu5Ac(a2-3)Gal(b1-4)[Fuc(a1-3)]GlcNAc(b1-3)Gal(b1-4)[Fuc(a1-3)]GlcNAc(b1-3)Gal(b1-4)[Fuc(a1-3)]GlcNAc
# In short: as §1
# [32] = molecular target: Neu5Ac(a2-3)Gal(b1-4)[Fuc(a1-3)]GlcNAc(b1-3)GalNAc
# In short: as §1
# [33] = molecular target: Neu5Ac(a2-3)Gal(b1-4)[Fuc(a1-3)]GlcNAc(b1-6)[Gal(b1-3)]GalNAc
# In short: as §1
# [34] = molecular target: Neu5Ac(a2-3)Gal(b1-4)[Fuc(a1-3)]GlcNAc(b1-6)[Neu5Ac(a2-3)Gal(b1-3)]GalNAc
# In short: as §1
# [35] = molecular target: Neu5Ac(a2-3)Gal(b1-4)[Fuc(a1-3)]GlcNAc6S
# In short: as §1
# [36] = molecular target: Neu5Ac(a2-3)Gal6S(b1-4)GlcNAc
# In short: as §1
# [37] = molecular target: Neu5Ac(a2-3)Gal6S(b1-4)[Fuc(a1-3)]GlcNAc
# In short: as §1
binder,measurement,setting,value
FGFR2-Fc (protein) MVNVTDAISSGDDEDDTDGAEDFVSENSNNKRAPYWTNTEKMEKRLHAVPAANTVKFRCPAGGNPMPTMRWLKNGKEFKQEHRIGGYKVRNQHWSLIMESVVPSDKGNYTCVVENEYGSINHTYHLDVVERSPHRPILQAGLPANASTVVGGDVEFVCKVYSDAQPHIQWIKHVEKNGSKYGPDGLPYLKVLKHSGINSSNAEVLALFNVTEADAGEYICKVSNYIGQANQSAWLTVLPKQQAPGREKEITASPDYLETRPLEQKLISEEDLAANDILDYKDDDDKV,glycan array binding signal (z-score),[1],-0.115
same,glycan array binding signal (z-score),Neu5Ac(a2-3)Gal(b1-4)Glc,0.682
same,glycan array binding signal (z-score),[2],-0.147
same,glycan array binding signal (z-score),[3],0.836
same,glycan array binding signal (z-score),[4],0.136
same,glycan array binding signal (z-score),[5],0.035
same,glycan array binding signal (z-score),[6],0.282
same,glycan array binding signal (z-score),[7],-0.022
same,glycan array binding signal (z-score),[8],0.283
same,glycan array binding signal (z-score),[9],-0.242
same,glycan array binding signal (z-score),[10],0.107
same,glycan array binding signal (z-score),[11],0.068
same,glycan array binding signal (z-score),[12],-0.431
same,glycan array binding signal (z-score),[13],0.322
same,glycan array binding signal (z-score),[14],-0.273
same,glycan array binding signal (z-score),[15],-0.144
same,glycan array binding signal (z-score),[16],0.311
same,glycan array binding signal (z-score),[17],0.123
same,glycan array binding signal (z-score),[18],0.211
same,glycan array binding signal (z-score),[19],-0.459
same,glycan array binding signal (z-score),[20],-0.426
same,glycan array binding signal (z-score),[21],0.182
same,glycan array binding signal (z-score),[22],0.313
same,glycan array binding signal (z-score),[23],0.126
same,glycan array binding signal (z-score),[24],0.924
same,glycan array binding signal (z-score),[25],0.194
same,glycan array binding signal (z-score),[26],0.533
same,glycan array binding signal (z-score),[27],-0.609
same,glycan array binding signal (z-score),[28],-0.19
same,glycan array binding signal (z-score),[29],1.09
same,glycan array binding signal (z-score),[30],-0.296
same,glycan array binding signal (z-score),[31],-0.446
same,glycan array binding signal (z-score),[32],0.35
same,glycan array binding signal (z-score),[33],0.455
same,glycan array binding signal (z-score),[34],-0.328
same,glycan array binding signal (z-score),[35],-0.024
same,glycan array binding signal (z-score),[36],0.354
same,glycan array binding signal (z-score),[37],-0.696
